83 variants from the RNAGym collection of RNA variant scans (doi:10.1093/nar/gkz1192) can be followed below.

The source gives no read counts; variants with many changes may rest on few reads.

Sequences and labels used below:
B1: CPEB3 Ribozyme (parent)
chain: UAACAGGGGGCCACAGCAGAAGCGUUCACGUCGCAGCCCCUGUCAGAUUCUGGUGAAUCUGCGAAUUCUGCUGUAUAUCUC

The variants in this data set derive from B1. Nature of the data set: self-cleavage, relative activity (ratio to wild type); higher = more cleavage; in vitro, sequencing. Put shortly:
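Barcoded CPEB3 ribozyme mutants, produced by rounds of error-prone PCR, self-cleaved while being transcribed with T7 RNA polymerase for 5 hours at 37°C and during a subsequent 15 min DNase I step before EDTA was added. Sequencing of template-switched cDNA on Illumina gave cleaved and total reads, and DNA sequencing assigned barcodes to variants. Each variant's relative activity is its cleaved/total read fraction divided by the unmutated ribozyme's fraction, averaged across three batches. A variant needed a minimum of 5 reads.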
In the case of A5U G7U U31A A35G C62A U72C, the self-cleavage was found to be 0.1.

With A5U C23A U31A U54A A57G U58A U72C, the self-cleavage turned out to be 0.06.

As to A5U C38U C44U U49C, the self-cleavage is 0.12.

For the variant A5U C11U U54A U60G, the self-cleavage is 0.19.

For A5U G8A U43C U49C U51C A64G A75G, the self-cleavage was found to be 0.

On to A5U A47G U67C U78C U80C, for which the self-cleavage came out at 0.17.

For A5U A57G A65G U67C C71G U74A U80C, the self-cleavage came to 0.25.

Regarding A5U A45U U67C, the self-cleavage stood at 0.14.

In the case of A5U U26C U48C, the self-cleavage worked out at 0.68.

With A5U A65U U66C, the self-cleavage was 0.17.

Take A5U C38A A47G U54C U60A U76C: the self-cleavage stood at 0.07.

For A5U G9A A21G U31C U60C, the self-cleavage came out at 0.06.

For the variant A5U G10C A13G U25G U51A U80A, the self-cleavage stood at 0.05.

As to A5U U25C A28G U54C U69A U72C, the self-cleavage was determined as 0.12.

Consider A5U U25A U26A A56G A57C, for which the self-cleavage turned out to be 0.25.

As to A5U A45G A56U, the self-cleavage turned out to be 0.74.

With A5U G10U A28G U31A G52A U80A, the self-cleavage was 0.29.

For the variant A5U G7C U31C A35G A64U, the self-cleavage is 0.12.

For the variant A5U G55A U67C, the self-cleavage amounted to 0.23.

Take A5U C14A U31C U58C U67C U69C: the self-cleavage was determined as 0.11.

For A5U C11G A64U, the self-cleavage worked out at 0.42.

For A5U C14A C29G U41C A57G U58C, the self-cleavage was 0.1.

For A5U G10A U31C U48C U60C A65C U76A, the self-cleavage stood at 0.15.

In the case of A5U C11U A15U C44A U69C U76A U78C, the self-cleavage is 0.06.

Regarding A5U A28U U48C U51A A65G U69C, the self-cleavage was determined as 0.12.

Take A5U U26A A35U: the self-cleavage came to 0.26.

For the variant A5U G6A U43A U80A, the self-cleavage was determined as 0.56.

As to A5U C14A U74A, the self-cleavage worked out at 1.02.

As for A5U A57G U60C U66A, the self-cleavage stood at 0.22.

Regarding A5U A35U G73A, the self-cleavage amounted to 1.26.

On to A5U A35C U41A U54C, for which the self-cleavage was determined as 0.29.

As to A5U G22A C38A A64G C71U, the self-cleavage is 0.08.

As for A5U C38U A57G U72C, the self-cleavage came out at 0.62.

Regarding A5U C40U A45G U51A A57G U74A A75G, the self-cleavage turned out to be 0.29.

As to A5U C14U C38U, the self-cleavage is 0.82.

A5U C29U C79G: the self-cleavage came to 0.85.

For the variant A5U C12U A15G, the self-cleavage worked out at 1.05.

In the case of A5U A56G U67C U72A, the self-cleavage was found to be 0.28.

With A5U C23G U69C U78C, the self-cleavage was determined as 0.1.

As for A5U G7A A35U U41G U48C A57G A65G, the self-cleavage was 0.05.

Take A5U A45G A64G U67C U80A: the self-cleavage is 0.28.

With A5U A45G A57G U69C, the self-cleavage was found to be 0.26.

For A5U G36A U49C U78A, the self-cleavage was found to be 0.11.

With A5U C11A U54C U69C U72A U76C A77U, the self-cleavage was found to be 0.06.

With A5U U25G C40U, the self-cleavage was 0.31.

Take A5U G9U A35U C38U U60C: the self-cleavage came out at 0.15.

As for A5U C34U C38A G46A, the self-cleavage was determined as 0.1.

A5U C34U A35G U67C: the self-cleavage stood at 0.13.

A5U C12A U66C: the self-cleavage was found to be 0.48.

Turning to A5U U25C A57G A65G U78A, the self-cleavage is 0.14.

Turning to A5U G7C A13U A47G, the self-cleavage was 0.08.

Consider A5U U25A A64G, for which the self-cleavage was 0.2.

As for A5U C12U C17U A47G U54A, the self-cleavage turned out to be 0.66.

With A5U C27U U41A U43C U78C, the self-cleavage came out at 0.21.

As for A5U G9A A21U U54A U66A, the self-cleavage came to 0.1.

As for A5U C12U A15G U41C, the self-cleavage was found to be 0.55.

With A5U G33C C71U U72A, the self-cleavage turned out to be 0.08.

Regarding A5U C29U U43C, the self-cleavage turned out to be 0.15.

With A5U C50A U54C, the self-cleavage turned out to be 0.86.

For A5U G10A U58C U67A U69C U72C, the self-cleavage worked out at 0.09.

For A5U U26C A28U U31A G36A A45U, the self-cleavage stood at 0.11.

Regarding A5U C11U A15G A56G A65G U80A, the self-cleavage is 0.06.

In the case of A5U G9U A20C U25C U41C A45G A64G, the self-cleavage came out at 0.06.

Regarding A5U G9A U25C U31A A35U, the self-cleavage is 0.06.

Consider A5U A45U U48C U51C, for which the self-cleavage was found to be 0.39.

A5U G10A C68A: the self-cleavage is 0.1.

A5U A35G A45G U51C U69A C71G: the self-cleavage was found to be 0.79.

As for A5U A35U U78C, the self-cleavage stood at 0.55.

For the variant A5U G7A A18U U49C G70A, the self-cleavage turned out to be 0.19.

As to A5U C12U U49A A57G U60A G63U A75G, the self-cleavage is 0.42.

Take A5U C11U A15U U69C U80C: the self-cleavage stood at 0.34.

On to A5U G6C U67C, for which the self-cleavage is 0.36.

Regarding A5U G24A U25C U58C U67C, the self-cleavage turned out to be 0.07.

On to A5U U26C A28C A57G C68A U72A, for which the self-cleavage is 0.09.

For the variant A5U C23U A28G A56G U69C U72A U80A, the self-cleavage was determined as 0.09.

Consider A5U C11U U54C A56G, for which the self-cleavage was found to be 0.14.

For the variant A5U A47G U69A U80C, the self-cleavage amounted to 0.63.

A5U C12A A20U A35G: the self-cleavage is 0.52.

As for A5U G7U G10C A15U A21G U60C U80C, the self-cleavage came to 0.13.

Consider A5U G33A U54C U60A A64C U72A, for which the self-cleavage was 0.09.

Consider A5U U25C A65G U72C, for which the self-cleavage is 0.18.

A5U G24U A28C U51A A56G U60C U72G: the self-cleavage stood at 0.57.

A5U A28U U41C U66C U80C: the self-cleavage was found to be 0.21.
